Reference: the supplement of paper PMC3334620
In all, about 33,000 sequences were measured (“E-score (-0.5 to 0.5)”: median about -0.016, highest 2% from about 0.31 on). The list shows a part of the results.

Each sequence was assayed against Cst6 (UniProt P40535) (assay: PBM E-score (8-mer binding enrichment) (E-score (-0.5 to 0.5)); higher = stronger / more preferred TF binding; most listed sequences are background and not binding sites). Conditions: protein concentration: 200 nM; construct: GST-DNA-binding domain.
Procedure, shortened: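 Each ungapped eight-base word and its reverse complement, pooled, received an E-score from the Universal PBM Analysis Suite. Underlying scans, normalised with masliner, recorded fluorescent anti-GST bound to GST-tagged yeast transcription factors. These were applied at about 100-200 nM to universal all-10-mer Agilent arrays double-stranded by primer extension.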

Sequence	PBM E-score
AGACACGC	0.0288
AATGGTAT	0.0418
GAGACGCC	0.0132
GTAACTCA	-0.0416
TCCAGACA	-0.0966
GACTTGTA	-0.0736
AGCCCAGG	-0.371
CCTCCTCA	-0.256
AACTGAGT	0.022
CATATGGC	0.0678
ACATGAAA	0.0572
CAGATGGC	0.0814
GGTCACTA	0.0296
GTTGGTGA	0.15
ATTTGAGG	0.0741
AATTACAT	0.318
CGGGACAA	-0.0706
ACTAATAT	0.302
AACGCAAC	0.212
ATCGGTCG	-0.0795
GGTCTACA	0.00658
AAAGCTCG	-0.0599
GTAAATGA	0.277
ATTCGGAC	0.108

Sequence	PBM E-score
GGCACCAA	0.207
GATGTAGA	0.205
AGCCAAAG	-0.114
CGTGCAGA	-0.0398
CCGTGTGA	0.241
TCTCGGAA	-0.00678
AATTAAGG	-0.0409
CATTCGAG	0.0766
AAATGTGC	0.0944
TGCGACCA	0.00536
GGCTCCGA	-0.0824
CAGGGAAC	0.00472
AAGAACCA	0.0993
AATACGCT	0.0276
AATTCAGT	0.0141
AAACCTAA	0.052
ACAGGAAG	-0.0175
GAAGAACA	0.131
GAAGATTA	0.124
AACGAATT	0.139
TCATCACA	0.252
ACACAGCT	-0.115
TAGGTGCA	-0.149
CCAACAAA	0.154

Sequence	PBM E-score
GTCGATAA	0.0842
AGATGGAC	0.18
AAAGAAGT	0.0945
ACTGAGCA	-0.0386
CAACTTGA	0.139
ATGGGGGA	-0.413
GACTCATC	-0.11
CAGGTGCC	-0.107
ACGCACGG	0.267
ATTCGGTA	0.164
CAACGCTA	-0.0868
CTTTGGGC	-0.163
CGCAACCA	-0.0895
ACGAATGG	0.0273
AATGCGCT	-0.0832
CATTGCAG	0.0762
CGACGGTA	-0.0315
AGTTGACC	-0.114
CCAGAGAC	-0.162
GATTTCTA	0.123
GCTAACCC	-0.223
CCCAGCAA	-0.101
CGAGAGGA	-0.00121
ATAGCTAG	-0.0952

Sequence	PBM E-score
GTCAAGGA	0.101
CTATAAAG	0.132
GATTTGCC	0.0926
TCAACTCA	0.113
GAGCCAAA	-0.116
AATCAGGT	0.233
AATCTCCC	-0.0703
AAGTTCAA	0.0723
AGCTACCA	-0.118
CTGTGGCC	-0.184
AGCTGTTC	-0.0706
AAACAGGT	0.0221
CAATTAAG	0.0737
GACCGTGA	0.0482
AAAGCAAA	0.186
CACCCATC	-0.0255
TAGGGACA	-0.166
GGAAGAAA	0.095
AAGAAGGG	-0.224
GCCAGGAC	-0.287
AGTTTGGA	0.0337
AAAATATA	0.262
